Data on 4 molecules can be found in patent US20240343791A1 (YUANPU BIOTECHNOLOGY WUHAN, published 2024).

Substitutions are numbered along the chain they refer to. Like-named read-outs stand apart in the source and are kept apart here.

Test [1] addresses T1, human VEGFA (Cat. No. Z03073, Genscript) (human, UniProt P15692-4 27-191).
T1 construct: Bought protein; also called VA; VEGFA165
T1 sequence (looked up): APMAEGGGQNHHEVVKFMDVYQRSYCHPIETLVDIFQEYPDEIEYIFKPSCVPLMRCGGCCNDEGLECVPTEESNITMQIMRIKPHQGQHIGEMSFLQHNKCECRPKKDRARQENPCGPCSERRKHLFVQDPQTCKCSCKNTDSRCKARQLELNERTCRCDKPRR
Nature of the test: SPR (Biacore), protein captured on protein A chip, VEGFA as analyte, 25 C. An excerpt:
The data was processed by Biacore™ Insight Evaluation software, using standard double reference and fitting with a 1:1 binding model, to determine the binding rate (kₐ) and dissociation rate (kd).
(Surface plasmon resonance follows binding to a sensor surface in real time, without labels.)

Test [2] has as its target T2, human VEGFC (Cat. No. Z03286, Genscript) (human, UniProt P49767 112-227, limits assumed).
T2 construct: Bought protein; also called VC
T2 sequence (looked up): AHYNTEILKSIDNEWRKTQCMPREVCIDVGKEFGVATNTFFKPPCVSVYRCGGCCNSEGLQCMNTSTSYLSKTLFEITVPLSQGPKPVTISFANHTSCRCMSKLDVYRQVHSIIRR
Nature of the test: SPR (Biacore), protein captured on protein A chip, VEGFC as analyte, 25 C. How it is done:
(§1) Human VEGFC (Cat. No.: Z03286-10 μg, Genscript, China) solutions with concentrations of 10, 5, 2.5, 1.25, 0.63, 0.31, 0.16, 0.08, and 0 (blank) nM were produced by diluted into a running buffer. Each analysis cycle comprises: (1) capturing the bispecific protein on flow pool 2 (Fc2), (2) injecting the VEGFC solution onto flow cells 1 and 2 (Fc1 and Fc2) at a rate of 30 μL/minute (for 120 seconds), (3) allowing 1×HBS-EP+buffer to flow at 30 μL/minute through the chip for 360 seconds to monitor the dissociation phase, (4) injecting a 10 mM glycine hydrochloride buffer, pH 1.5, to allow surface regeneration of the chip. The data was processed by Biacore™ Insight Evaluation software, using standard double reference and fitting with a 1:1 binding model, to determine the binding rate (kₐ) and dissociation rate (kd).

Test [3] concerns the target T1, human VEGFA (Cat. No. Z03073, Genscript). As to the kind of experiment: cell-based or functional assay.
The target in test [4] is T2, human VEGFC (Cat. No. Z03286, Genscript). As to the kind of experiment: cell-based or functional assay.
For test [5] the target is unchanged. As to the kind of experiment: SPR (Biacore), compared with OPT-302. How it is done:
as §1

For test [6], the target named is T1, human VEGFA (Cat. No. Z03073, Genscript). Nature of the test: ELISA, plate coated with VEGFA, detection with HRP anti-human IgG. In general terms: An ELISA detects its analyte on a solid surface through an enzyme-linked reagent.
For test [7], the target named is T2, human VEGFC (Cat. No. Z03286, Genscript). As to the kind of experiment: ELISA, plate coated with VEGFC, detection with HRP anti-human IgG.
Test [8] concerns the target T1, human VEGFA (Cat. No. Z03073, Genscript). As to the kind of experiment: competition ELISA, Eylea coated as competitor, 5 nM VEGFA dimer pre-incubated with BiFpC2.
Test [9] deals with T3, VEGFC-his (Cat. No. VEC-H4225, AcroBio systems) (UniProt P49767 112-227, limits assumed).
T3 construct: also called VEGFC-his dimer; not shown: His tag
T3 sequence (looked up): T2 sequence (looked up)
As to the kind of experiment: competition ELISA, VEGFR3-Fc coated as competitor, 2.5 nM VEGFC-his dimer pre-incubated with BiFpC2.

Test [10] concerns the target T1, human VEGFA (Cat. No. Z03073, Genscript). As to the kind of experiment: competition ELISA: plate coated with Eylea, BiFpC2 in dilution series pre-incubated with 5 nM VEGFA, VEGFA bound to Eylea detected. The sheet prints ng/mL, the text prints nM.
Test [11] addresses T3, VEGFC-his (Cat. No. VEC-H4225, AcroBio …). As to the kind of experiment: competition ELISA: plate coated with VEGFR3-Fc, BiFpC2 in dilution series pre-incubated with 2.5 nM VEGFC-his, VEGFC-his bound to VEGFR3-Fc detected with anti-His HRP. The sheet prints ng/mL, the text prints nM.
For test [12], the target named is T1, human VEGFA (Cat. No. Z03073, Genscript). Nature of the test: cell-based or functional assay. The source holds these as a separate data set.
The target in test [13] is T2, human VEGFC (Cat. No. Z03286, Genscript). As to the kind of experiment: cell-based or functional assay. The source holds these as a separate data set.
In test [14] the target is T4, Human VEGFC Protein (His Tag) (Cat. No. 10542-H08H, Sino Biological) (human, UniProt P49767 32-227).
T4 construct: not shown: His tag
T4 sequence (looked up): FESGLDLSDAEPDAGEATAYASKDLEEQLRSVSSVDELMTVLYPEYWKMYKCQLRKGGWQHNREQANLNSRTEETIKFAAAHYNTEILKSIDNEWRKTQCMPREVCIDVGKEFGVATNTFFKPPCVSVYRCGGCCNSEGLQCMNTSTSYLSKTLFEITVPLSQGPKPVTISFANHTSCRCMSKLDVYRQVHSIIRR
Nature of the test: competition ELISA, VEGFC (His Tag) coated, biotinylated human VEGFR3 as competitor, streptavidin-HRP detection.

B1: BiFpC4 (Fc fusion)
chain: YSMTPPTLNITEESHVIDTGDSLSISCRGQHPLEWAWPGAQEAPATGDKDSEDTGVVRDCEGTDARPYCKVLLLHEVHAQDTGSYVCYYKYIKARIEGTTAASSYVFVRDFEQPFINKPDTLLVNRKDAMWVPCLVSIPGLNVTLRSQSSVLWPDGQEVVWDDRRGMLVSTPLLHDALYLQCETTWGDQDFLSNPFLVHITGNELYDIQLLPRKSLELLVGEKLVLNCTVWAEFNSGVTFDWDYPGKQAERGKWVPERRSQQTHTELSSILTIHNVSQHDLGSYVCKANNGIQRFRESTEVIVHE[left out - human IgG1 Fc]GGSGGGEIVMTQSPSTLSASVGDRVIITCQASEIIHSWLAWYQQKPGKAPKLLIYLASTLASGVPSRFSGSGSGAEFTLTISSLQPDDFATYYCQNVYLASTNGANFGQGTKLTVLGGGGGSGGGGSGGGGSGGGGSEVQLVESGGGLVQPGGSLRLSCTASGFSLTDYYYMTWVRQAPGKGLEWVGFIDPDDDPYYATWAKGRFTISRDNSKNTLYLQMNSLRAEDTAVYYCAGGDHNSGWGLDIWGQGTLVTVSS
notes: also called bispecific protein BiFpC4
Usually Kd stands for the constant that tells how readily two partners part at equilibrium. The low end stands for tighter binding, the high end for weaker binding. The koff is a measure of how fast the partners let go of each other. Low readings indicate a long-lived complex, high ones a short-lived complex. Usually kon stands for a measure of how fast the partners come together. Higher therefore signals fast association. In [1], B1 had a Kd of 0.0102 nM, a koff of 0.000239 s⁻¹ and a kon of 2.35e+07 M⁻¹ s⁻¹. In [2], this molecule yielded a Kd of 0.1 nM, a koff of 0.00191 s⁻¹ and a kon of 1.91e+07 M⁻¹ s⁻¹.

B2: BiFpC1 (Fc fusion)
chain: SDTGRPFVEMYSEIPEIIHMTEGRELVIPCRVTSPNITVTLKKFPLDTLIPDGKRIIWDSRKGFIISNATYKEIGLLTCEATVNGHLYKTNYLTHRQTNTIIDVVLSPSHGIELSVGEKLVLNCTARTELNVGIDFNWEYPSSKHQHKKLVNRDLKTQSGSEMKKFLSTLTIDGVTRSDQGLYTCAASSGLMTKKNSTFVRVHEK[left out - human IgG1 Fc]GGSGGYSMTPPTLNITEESHVIDTGDSLSISCRGQHPLEWAWPGAQEAPATGDKDSEDTGVVRDCEGTDARPYCKVLLLHEVHAQDTGSYVCYYKYIKARIEGTTAASSYVFVRDFEQPFINKPDTLLVNRKDAMWVPCLVSIPGLNVTLRSQSSVLWPDGQEVVWDDRRGMLVSTPLLHDALYLQCETTWGDQDFLSNPFLVHITGNELYDIQLLPRKSLELLVGEKLVLNCTVWAEFNSGVTFDWDYPGKQAERGKWVPERRSQQTHTELSSILTIHNVSQHDLGSYVCKANNGIQRFRESTEVIVHE
notes: also called bispecific protein BiFpC1
Regarding B2, in test [1], the Kd is 0.0191 nM, the koff came out at 0.000499 s⁻¹ and the on-rate constant (kon) turned out to be 2.61e+07 M⁻¹ s⁻¹. In [2], this molecule displayed a Kd of 0.372 nM, a koff of 0.00403 s⁻¹ and a kon of 1.08e+07 M⁻¹ s⁻¹.

B3: BiFpC2 (Fc fusion)
chain: SDTGRPFVEMYSEIPEIIHMTEGRELVIPCRVTSPNITVTLKKFPLDTLIPDGKRIIWDSRKGFIISNATYKEIGLLTCEATVNGHLYKTNYLTHRQTNTIIDVVLSPSHGIELSVGEKLVLNCTARTELNVGIDFNWEYPSSKHQHKKLVNRDLKTQSGSEMKKFLSTLTIDGVTRSDQGLYTCAASSGLMTKKNSTFVRVHEKGGGSGGYSMTPPTLNITEESHVIDTGDSLSISCRGQHPLEWAWPGAQEAPATGDKDSEDTGVVRDCEGTDARPYCKVLLLHEVHAQDTGSYVCYYKYIKARIEGTTAASSYVFVRDFEQPFINKPDTLLVNRKDAMWVPCLVSIPGLNVTLRSQSSVLWPDGQEVVWDDRRGMLVSTPLLHDALYLQCETTWGDQDFLSNPFLVHITGNELYDIQLLPRKSLELLVGEKLVLNCTVWAEFNSGVTFDWDYPGKQAERGKWVPERRSQQTHTELSSILTIHNVSQHDLGSYVCKANNGIQRFRESTEVIVHE[left out - human IgG1 Fc]
notes: also called bispecific protein BiFpC2
The EC50 (read off the curve) is the concentration at which the effect is half-maximal. Read a high EC50 (read off the curve) as weaker potency. By IC50 is commonly meant the concentration that gives 50% inhibition. Low readings indicate greater potency in that assay, high ones weaker potency in that assay. B3: the “IC50 (inhibition of VEGFA-induced HUVEC proliferation, CellTiter-Glo)” value in test [3] came out at 0.0255 µg/mL. The “IC50 (inhibition of VEGFC-induced HUVEC proliferation, CellTiter-Glo)” value in test [4] came out at 9 µg/mL. In addition, the “fold of VEGFC affinity against OPT-302” value in test [5] is roughly 10 times. In addition, the “EC50 (read off the curve)” value in [6] was roughly 0.04 µg/mL; in test [7] it was roughly 0.3 µg/mL. Moreover, the Kd in test [1] amounted to 0.0567 nM; in [2], 0.0923 nM. For the same molecule, the results for the koff in [1] and in test [2] were 0.000856 s⁻¹ and 0.000247 s⁻¹, respectively. Further, the kon was 1.51e+07 M⁻¹ s⁻¹ in test [1] and 2.67e+06 M⁻¹ s⁻¹ in [2]. Also, the IC50 came out at 10.6 nM in test [8], 4.8 nM in [9], 0.0106 µg/mL in test [10] and 0.0048 µg/mL in test [11].

B4: BiFpC6 (Fc fusion)
chain: B3 chain with Q291N
notes: also called bispecific protein BiFpC6
As to B4, the “IC50 (inhibition of VEGFA-induced HUVEC proliferation, CellTiter-Glo)” value in test [12] was determined as 0.0823 µg/mL. For the same molecule, the “IC50 (inhibition of VEGFC-induced HUVEC proliferation, CellTiter-Glo)” value in [13] amounted to 0.0852 µg/mL. The “fold of VEGFC affinity against OPT-302” value in test [5] was roughly 10 times. In addition, the results for the “EC50 (read off the curve)” value in [6] and in test [7] were roughly 0.04 µg/mL and roughly 0.3 µg/mL, respectively. For the same molecule, the Kd in test [1] came to 0.0293 nM; in test [2], 0.0633 nM. Further, the koff in test [1] amounted to 0.000236 s⁻¹; in test [2], 0.0002 s⁻¹. Also, the kon in test [1] came out at 8.06e+06 M⁻¹ s⁻¹; in test [2], 3.17e+06 M⁻¹ s⁻¹. This molecule also showed a 50% inhibitory concentration (IC50) in test [14] of 5.41 µg/mL.
